Over roughly 110,000 compounds, “z-score” has its median near -0.1; the highest 2% begin near 2. This is one part of the list.

The experiment deals with Metabotropic glutamate receptor 8 (Rattus norvegicus) (UniProt P70579). Kind of experiment: mGluR8 Gi/Go-coupled signaling modulation – cell-based, rat, thallium flux, HTS, primary screen (AID 488969). The conditions noted are these: HEK293 rat mGluR8, GIRK (G protein-gated inwardly rectifying potassium channel) thallium flux, FluoZin2; at 10 µM; stronger effect = higher value; submaximal glutamate (EC20) added with thallium.
Chain of UniProt P70579 (P70579 whole entry, looked up): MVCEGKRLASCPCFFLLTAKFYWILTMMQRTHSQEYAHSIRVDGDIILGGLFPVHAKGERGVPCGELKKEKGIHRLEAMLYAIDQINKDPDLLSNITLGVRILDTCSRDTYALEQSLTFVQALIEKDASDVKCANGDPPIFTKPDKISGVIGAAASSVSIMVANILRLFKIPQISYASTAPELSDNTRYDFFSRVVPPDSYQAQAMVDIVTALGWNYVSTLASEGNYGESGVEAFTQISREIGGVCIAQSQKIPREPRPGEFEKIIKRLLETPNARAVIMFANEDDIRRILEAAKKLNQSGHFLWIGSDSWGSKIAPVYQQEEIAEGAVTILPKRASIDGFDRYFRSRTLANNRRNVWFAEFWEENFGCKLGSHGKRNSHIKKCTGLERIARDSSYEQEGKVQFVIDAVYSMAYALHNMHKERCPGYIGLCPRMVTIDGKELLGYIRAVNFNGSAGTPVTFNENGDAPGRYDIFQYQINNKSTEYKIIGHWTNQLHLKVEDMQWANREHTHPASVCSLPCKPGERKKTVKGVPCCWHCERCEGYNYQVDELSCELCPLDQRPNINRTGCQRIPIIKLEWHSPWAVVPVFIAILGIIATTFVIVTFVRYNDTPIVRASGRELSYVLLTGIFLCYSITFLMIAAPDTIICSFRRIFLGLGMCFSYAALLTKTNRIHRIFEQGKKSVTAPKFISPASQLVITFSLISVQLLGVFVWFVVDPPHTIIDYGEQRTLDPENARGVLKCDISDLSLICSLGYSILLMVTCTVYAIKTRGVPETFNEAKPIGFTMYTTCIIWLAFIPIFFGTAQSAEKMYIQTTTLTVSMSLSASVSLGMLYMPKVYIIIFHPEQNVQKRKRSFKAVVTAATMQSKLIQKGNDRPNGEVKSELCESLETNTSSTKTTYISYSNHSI
`Cc1cc(C)c2[nH]c(=O)c(CN(CC3CCCO3)C(=S)NCc3ccco3)cc2c1` (stereo unspecified) showed a z-score of 0.209.

Compound `CCOC(=O)c1c(NC(=O)c2cccs2)sc(C)c1CC` had a z-score of -0.104.

For `COc1ccc2c(c1)c1nc3ccccc3nc1n2CC(=O)OC(C)C`, the z-score was found to be 0.485.

Turning to `Cc1cc2oc(C(=O)Nc3c(C)n(C)n(-c4ccccc4)c3=O)c(C)c2cc1C`, the z-score is -0.974.

`O=C(C1=NN[C@@H]2C(=O)N(c3cccc(C(F)(F)F)c3)C(=O)[C@H]12)C(c1ccccc1)c1ccccc1` displayed a z-score of -0.164.

The compound `O=C(COC(=O)C1CC(=O)N(Cc2ccco2)C1)c1ccc(OC(=O)c2ccco2)cc1` (stereo unspecified) gave a z-score of 0.0771.

Compound `Cc1ccccc1N=C1NN=C(c2ccccc2F)CS1` returned a z-score of 1.19.

Turning to `COc1ccccc1NC(=O)NC(N)=O`, the z-score was found to be 0.482.

In turn, `CCCS(=O)(=O)c1c(S(=O)(=O)CCC)c2c3ccccc3ccn2c1C(=O)OC` returned a z-score of -0.21.

On to `COc1cc(-c2nnc(SCC3(c4ccc(Br)cc4)OCCO3)o2)cc(OC)c1OC`, for which the z-score was -0.385.

As for `CCOc1cccc(OCCCOc2ccccc2)c1`, the z-score is -0.0974.

In turn, `Cc1ccc(OCCNS(=O)(=O)c2cccs2)cc1` registered a z-score of 0.0923.

Compound `CCN(CC)C(=O)CSc1ncnc2c1nnn2-c1ccc(F)cc1` showed a z-score of -0.376.

Compound `Cc1ccc(OCC(=O)N2N=C(c3cccnc3)CC2(O)C(F)(F)F)cc1C` (stereo unspecified) registered a z-score of -0.105.

For the compound `Cc1nonc1OCC(C)(COc1nonc1C)NC(=O)c1ccc(Cl)cc1`, the z-score was -0.0555.

Regarding `CCC(CC)C(=O)c1c[nH]c(C(=O)NCCc2ccccn2)c1`, the z-score was determined as 0.0635.

`Cc1ccccc1CNC(=O)c1ccccc1` gave a z-score of -0.329.

Compound `Cc1ccc(-n2nc(C)c3c2OC(N)=C(C#N)C3c2ccncc2)cc1` (stereo unspecified) yielded a z-score of -0.498.

`O=C(c1cc(NC(=O)C23CC4CC(CC(C4)C2)C3)cc(NC(=O)C23CC4CC(CC(C4)C2)C3)c1)N1CCCCC1` returned a z-score of -1.34.

The compound `CCC(=O)NC(=S)Nc1ccc(NC(=O)COc2ccc(Cl)c(C)c2)cc1` had a z-score of -0.0852.

In the case of `C/C=C(\C)c1nnc(NC(=O)C(C)C)s1`, the z-score came to 0.0139.

`CCC(C)[C@H](NC(=O)Nc1ccc(C(C)=O)cc1)C(=O)OC` (stereo partly specified) gave a z-score of 0.195.

`COC(=O)c1c(C)[nH]c(C(=O)/C=C/c2ccccc2)c1C` registered a z-score of -0.0133.

In turn, `O=C(Cc1n[nH]c(=O)c2ccccc12)Nc1ccc(-c2nnc3n2CCCCC3)cc1` gave a z-score of -0.134.

Compound `O=C(COc1cc(Cl)c(Cl)cc1Cl)Nn1cnnc1` came in with a z-score of 0.298.

Compound `Cc1ccc(C)c(NC(=S)NC2CC3CCCC(C2)N3CC(C)C)c1` (stereo unspecified) yielded a z-score of -0.965.

As for `Cc1ccc(S(=O)(=O)N2CCCC2C(=O)Nc2cc(C)on2)cc1` (stereo unspecified), the z-score was 0.4.

Regarding `Cc1nc([N+](=O)[O-])nn1C12CC3CC(CC(Cl)(C3)C1)C2`, the z-score is -0.00977.

With `N#Cc1c2n(c3c(=O)n(CC(=O)c4ccc(Br)cc4)cnc13)CCCC2`, the z-score was -0.601.

For the compound `CCCCNC(=O)c1ccccc1NC(=O)c1ccccc1N(C)S(C)(=O)=O`, the z-score was determined as 0.2.

The compound `CCOC(=O)c1c(NC(=O)CSc2nnc(Cc3ccccc3)o2)sc(C)c1C` displayed a z-score of -0.364.

Take `CN1C(=O)SC(Nc2cccc3ccccc23)C1=O` (stereo unspecified): the z-score was -0.0592.

With `O=C(NCC(c1cccs1)N1CCOCC1)c1ccc(Cl)c([N+](=O)[O-])c1` (stereo unspecified), the z-score was -0.269.

`COCCN(C(=O)C(C)C)c1nnc(-c2ccc(C)cc2)s1` came in with a z-score of -0.134.

For the compound `Cc1cccc(NC(=O)CSc2nc3[nH]ncc3c(=O)[nH]2)c1C`, the z-score is -0.205.

The compound `COc1ccc(CC(=O)N2CCNC2=O)cc1` showed a z-score of -0.761.

Compound `CCOC(=O)c1cn(-c2ccc([N+](=O)[O-])cc2)c2cc(Cl)c([N+](=O)[O-])cc2c1=O` yielded a z-score of -0.289.

Consider `Cc1ccc(SCc2noc(C(=O)NC(C)C)c2C(=O)O)cc1C`, for which the z-score is -0.218.

As to `Cc1ccc(/C=C/C(=O)N2CCN(S(=O)(=O)c3ccc(C)c(C)c3)CC2)o1`, the z-score turned out to be 0.583.

Take `CC1CCCN(CC(O)COc2ccc(Cl)cc2)C1` (stereo unspecified): the z-score came out at 0.149.

With `COc1ccccc1N1CCN(CC(O)COc2c(OC)cccc2OC)CC1` (stereo unspecified), the z-score was determined as 0.862.

Regarding `Cc1cc(Nc2ccccc2)c2c([N+](=O)[O-])c(C)cc(C)c2n1`, the z-score amounted to 0.0133.

Turning to `COc1ccc(C)cc1-n1nnnc1SCc1cn2ccsc2n1`, the z-score was -0.447.

For `CCOc1cc(C(=O)Nc2ccc([N+](=O)[O-])cn2)cc(OCC)c1OCC`, the z-score was -0.113.

As for `O=C(CN1C(=O)NC2(CCCc3ccccc32)C1=O)N1CCN(C(=O)c2ccco2)CC1` (stereo unspecified), the z-score is -0.336.

As to `FC(F)(F)c1cccc(Oc2nc(-c3ccccc3)nnc2C(F)(F)F)c1`, the z-score was -0.0104.

`Cc1cc(C)cc(N=C2NC(=O)/C(=C/c3cccs3)S2)c1`: the z-score came out at 0.141.

In turn, `O=[N+]([O-])c1cccc(C2=NCCS2)c1` yielded a z-score of -0.057.

In turn, `CCOC(=O)c1nnn(-c2nonc2NC(C)=O)c1C` showed a z-score of 0.102.

As to `COc1ccccc1N1CCN(CCC(=O)Nc2ccc3c(c2)OCO3)CC1`, the z-score is -0.0155.

As for `O=C(Nc1cccc(S(=O)(=O)N2CCOCC2)c1)c1cn(-c2ccccc2)nc1-c1ccc(F)cc1`, the z-score was -0.681.

The compound `CCOc1ccc(CCNC(=O)CSc2cc(=O)n(C)c3cc(Cl)ccc23)cc1OCC` had a z-score of -0.423.

`COc1ccc(NC(=O)CCN2CCN(S(=O)(=O)c3ccc(Cl)cc3)CC2)cc1` returned a z-score of -0.0748.

On to `CN1CCN(Cn2cc(/C=C/C(=O)c3ccccc3)c3ccccc32)CC1`, for which the z-score was -0.0549.

`CCOC(=O)C(C(=O)OCC)C(Nc1ccccc1)c1ccccc1` (stereo unspecified) returned a z-score of -0.332.

In turn, `CC(=O)c1c(C)[nH]c(C(=O)OCC(=O)Nc2sc3c(c2C#N)CCCC3)c1C` registered a z-score of -0.0673.

Compound `O=S(=O)(c1ccc(Nc2ccc3c(c2)OCO3)nc1)N1CCOCC1` gave a z-score of 2.28.

`Cc1cc(=O)oc2c3c4c(cc12)OCCN4CCC3` returned a z-score of -0.597.

The compound `O=C(CN1C(=O)CSCC1=O)NCc1ccc(F)cc1` displayed a z-score of 0.198.

For the compound `Cc1ccc(S(=O)(=O)Nc2ccc3c(c2)nc(CN2CCCC2)n3C)cc1`, the z-score is -0.235.

`COc1cccc(C(c2nnnn2C(C)(C)C)N2CCN(C3CCCCC3)CC2)c1OC` (stereo unspecified) showed a z-score of 0.0316.

`Cc1ccc2[nH]c3c(c2c1)CN(C(=O)CN(C)CC1OCCO1)CC3`: the z-score is -0.00997.

For the compound `COc1ccccc1NC1=C(C)C(=O)CC1`, the z-score is -0.466.

In turn, `COCCN1Cc2cccc(C(=O)Nc3cccnc3)c2C1=O` displayed a z-score of 0.234.

As to `C=CCc1c(C)nc(C)nc1N/N=C/c1ccc(F)cc1`, the z-score was -0.164.

Compound `O=S(=O)(/N=C(/c1ccc(F)cc1)N1CCCCC1)c1ccc(Cl)cc1` gave a z-score of -0.662.

On to `COc1ccc(CNCCC(c2ccccc2)c2ccc3c(c2)OCO3)cc1` (stereo unspecified), for which the z-score worked out at 2.28.

As for `Cn1c(/C=C/c2ccc([N+](=O)[O-])o2)nc2ccccc2c1=O`, the z-score is -0.214.

Take `Cc1cccc(Nc2cc(=O)[nH]c(=O)[nH]2)c1C`: the z-score is -0.0172.

`O=C(NC1CCN(C(=S)NCc2ccco2)CC1)NC12CC3CC(CC(C3)C1)C2`: the z-score was -0.117.

`O=c1c2ccccc2c(/C=N/n2cnnc2)c(O)n1-c1ccccc1`: the z-score is -0.633.

Compound `COc1cc(C2C(C#N)=C(N)OC3=C2C(=O)CCC3)cc(OC)c1OC(=O)N1CCOCC1` (stereo unspecified) had a z-score of 0.128.

`Cn1c(/C(C#N)=N/O)nc2ccccc21` registered a z-score of -0.159.

Consider `Cn1c2ccccc2c(=O)c2c(=O)n(C3CCCCCC3)c(C3CCCCC3)nc21`, for which the z-score is -0.175.

In the case of `COc1ccccc1-c1c(C)nn2c(N3CCCCCC3)cc(C)nc12`, the z-score was -0.698.

On to `COc1ccc(-n2c(C)cc(C=O)c2C)cc1Cl`, for which the z-score is -0.544.

For `COc1ccc(OCCSc2ncnc3nc[nH]c23)cc1`, the z-score worked out at 0.421.

On to `COC(=O)CN(C(=S)Nc1ccc(F)cc1)C1CC(=O)N(c2ccc(OC)cc2)C1=O` (stereo unspecified), for which the z-score is -0.133.

Compound `Cc1cc(C)nc(SC2CCCCC2O)n1` (stereo unspecified) returned a z-score of 0.972.

`CCCCN(CC)C(=O)c1cc2cc3ccc(OC)cc3nc2o1`: the z-score was -0.853.

Regarding `O=[N+]([O-])c1ccc(CN2CCOCCOCCOCC2)cc1`, the z-score is -0.132.

`CC(=O)Nc1nc2c(F)cccc2s1`: the z-score turned out to be 0.033.

The compound `CC(C)Oc1ccc(CNC(=O)CC(c2ccccc2)c2cc(Cl)ccc2O)cc1` (stereo unspecified) yielded a z-score of 0.0536.

`Cc1nn(-c2ccccc2)c(N)c1C(O)(CSc1nccn1C)C(F)(F)F` (stereo unspecified) registered a z-score of -0.135.

On to `Cc1cccc(NC(=O)c2cc(-c3ccco3)nc3ccccc23)n1`, for which the z-score is -0.158.

`CCN1CCN(C(C(=O)NC2CCCCC2)c2ccc(Cl)cc2)CC1` (stereo unspecified) yielded a z-score of 0.3.

On to `CCC(C)C(=O)Nc1nc2c(s1)C(=O)CC(C)(C)C2` (stereo unspecified), for which the z-score was 0.167.

On to `CC1CCN(CCCCOc2ccccc2[N+](=O)[O-])CC1`, for which the z-score was 0.0186.

Regarding `CCCCCCCCC(=O)N/N=C/c1ccccn1`, the z-score was determined as 1.06.

Consider `NC(=O)c1ccccc1NC(=O)c1ccccc1S(=O)(=O)c1ccccc1[N+](=O)[O-]`, for which the z-score was -0.297.

Compound `COC(=O)c1cc(OC)c(OC)cc1NC(=O)CN1CCOCC1` showed a z-score of 0.174.

For `CCOC(=O)c1c(NC(=O)C2COc3ccccc3O2)sc2c1CC(C)(C)NC2(C)C` (stereo unspecified), the z-score was 1.29.

As to `CC(C)C1OC2c3cccc4cccc(c34)C2N1c1ccccc1` (stereo unspecified), the z-score is -0.0175.

`Cn1cccc1CC(=O)NNC(=S)Nc1ccc(F)cc1` registered a z-score of -0.244.

Compound `CC(C)CNc1nc(=S)nc(N(C)C)[nH]1` registered a z-score of -0.092.

Regarding `CC1(C)CC(=O)CC(C)(C)N1OC(=O)c1ccco1`, the z-score is 0.00851.

`O=C(NCc1ccc(F)cc1)c1c2c(nc3ccccc13)CCN(Cc1ccccc1)C2` registered a z-score of -0.183.

`CC12CN3CC(C)(CN(C1)C3c1ccc3ccccc3c1O)C2=O` (stereo unspecified) returned a z-score of 0.664.

As for `COc1ccccc1OCC(=O)Nc1ccccc1C(=O)NCc1ccco1`, the z-score was 0.161.

`CC(C)CNC(=O)c1ccc(NC(=O)c2ccccc2[N+](=O)[O-])cc1` registered a z-score of -0.341.

For the compound `COc1cccc(NC(=O)Cc2ccc(C)cc2)c1`, the z-score was found to be 0.445.

For `O=C(Nc1ccccc1)C1CC(=O)N(c2ccc3c4c(cccc24)CC3)C1` (stereo unspecified), the z-score is -0.104.

`COC(=O)C(C(=O)OC)C(C[N+](=O)[O-])c1ccc(OC)cc1` (stereo unspecified): the z-score is -0.212.

As to `CCCC/C(C)=N/NC(=O)Nc1ccccc1`, the z-score is -0.105.

Compound `C=CCNC(=O)c1nn2cccnc2c1Cl` gave a z-score of -0.068.

For `O=C1C2C3C=CC(C3)C2C(=O)N1c1n[nH]c(-c2cccnc2)n1` (stereo unspecified), the z-score was -0.0444.

Turning to `Cc1cc(O)c(/C=N/Nc2cccc(Cl)c2)c(=O)o1`, the z-score is -0.0467.

`O=C(NCc1cccnc1)/C(=C\c1ccc(-c2cccc(Cl)c2)o1)S(=O)(=O)c1ccccc1` registered a z-score of -0.109.

`CCCC1C(c2ccco2)NC(c2ccco2)CC1(C)O` (stereo unspecified) returned a z-score of 0.739.

Regarding `Cn1ncc(Cl)c1C(=O)Nc1ccncc1`, the z-score came to 0.243.

In the case of `CCOC(=O)/C(C#N)=C1\Nc2ccccc2N=C1N(CC(C)C)CC(C)C`, the z-score was -1.44.

(Values after PubChem BioAssay AID488969 (Vanderbilt High Throughput Screening Facility, 2010).)
